Measurements reported in the BET-seq Pho4 binding data (Le et al. 2018).
This is one part of the list. Values were computed here from the reads of four pooled replicates and scatter widely.

These sequences were tested against T1, Pho4 (S. cerevisiae) (UniProt P07270) (assay: relative binding free energy (BET-seq); higher = weaker binding). Details: reference: library average.
T1 sequence: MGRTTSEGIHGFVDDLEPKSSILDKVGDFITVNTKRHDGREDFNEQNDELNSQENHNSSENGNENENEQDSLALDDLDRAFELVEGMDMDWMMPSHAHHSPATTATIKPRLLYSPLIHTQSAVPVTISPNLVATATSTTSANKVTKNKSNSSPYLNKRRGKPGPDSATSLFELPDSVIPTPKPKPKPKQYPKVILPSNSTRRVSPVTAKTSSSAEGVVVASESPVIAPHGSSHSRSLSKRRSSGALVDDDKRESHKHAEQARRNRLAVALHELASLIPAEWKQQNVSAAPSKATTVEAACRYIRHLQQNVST

Relative binding free energy, 0.43 kcal/mol:
TTTTTCACGTGTAACT

Relative binding free energy, 0 kcal/mol:
AAATACACGTGTATGT, ATGAGCACGTGATCGG, AGTATCACGTGGTTTA, TCTAACACGTGTTTTT

Relative binding free energy, -0.13 kcal/mol:
TTGAGCACGTGGGTAA, GCCAGCACGTGGGGAG

Relative binding free energy, 0.04 kcal/mol:
TGATGCACGTGCGTTC, AGGTTCACGTGGCGGC

Relative binding free energy, -0.21 kcal/mol:
GCTTGCACGTGGGGCG, CAATGCACGTGGTGTG, TTAAGCACGTGGTGTC

Relative binding free energy, -0.12 kcal/mol:
TTTAGCACGTGCGGGG, ATATGCACGTGGGAAT, GTGGACACGTGCTGGG, GATAGCACGTGGGGAA

Relative binding free energy, 0.29 kcal/mol:
GAGGTCACGTGTAAGA, GTGTTCACGTGTGCGC, AGAAGCACGTGAGGCT

Relative binding free energy, 0.23 kcal/mol:
GGCGTCACGTGTGAAG, GAATGCACGTGAGGTG, ATTCTCACGTGTCTTG

Relative binding free energy, 0.03 kcal/mol:
GATTGCACGTGTATGA, TGTATCACGTGGGATG, TCGGACACGTGGTCGG, TGTCACACGTGTTGCG

Relative binding free energy, -0.2 kcal/mol:
AAGTGCACGTGGTATA, AGTGGCACGTGGTGAA

Relative binding free energy, 0.27 kcal/mol:
TAGATCACGTGTTAAA, AAATTCACGTGTCGGG

Relative binding free energy, 0.09 kcal/mol:
TTTGTCACGTGGTGGT, GGGAGCACGTGATCTG, ATAATCACGTGGCGTG, GGGTACACGTGGCAGT

Relative binding free energy, 0.24 kcal/mol:
GGTAGCACGTGAGGAT, TTATTCACGTGTGTTA

Relative binding free energy, -0.03 kcal/mol:
ATTCGCACGTGTATTT, AATGTCACGTGGGTTA, GGCGGCACGTGGGATG, TGTAGCACGTGCAAGG

Relative binding free energy, -0.32 kcal/mol:
TGACGCACGTGGGGTC

Relative binding free energy, 0.3 kcal/mol:
AGGTACACGTGAAGGT, TTGTTCACGTGTCATA

Relative binding free energy, 0.13 kcal/mol:
AGTTACACGTGTGATT, GTGGTCACGTGTTTCG, AGGGTCACGTGTATAA, TTCGACACGTGGTAAG

Relative binding free energy, 0.21 kcal/mol:
GTAATCACGTGTTTGT, TGTTTCACGTGTCTAG, TTGTTCACGTGGTGCT, GGTGGCACGTGTAAAT

Relative binding free energy, -0.15 kcal/mol:
TAGTCCACGTGGGTGG, ATTAGCACGTGGTTAT

Relative binding free energy, -0.17 kcal/mol:
CATGGCACGTGGGAGT, AGAGGCACGTGGTGGG, TTCGGCACGTGGCAAG, AAGAGCACGTGTGGTG, AGTAGCACGTGCTGTT, GTGCCCACGTGTTGTG

Relative binding free energy, 0.17 kcal/mol:
GCCGTCACGTGGAGTG, GGAGTCACGTGTGGCA, AACGTCACGTGTCGGT, GGGGTCACGTGCGGGG, CTGGACACGTGTATGG, GGAATCACGTGGTTTG

Relative binding free energy, 0.2 kcal/mol:
TTCTGCACGTGAGGTG, AATGTCACGTGTCTTG, AATATCACGTGTGAGA, TCTATCACGTGGTTTG

Relative binding free energy, 0.26 kcal/mol:
TAATTCACGTGGGCGC, TAGTACACGTGAAGGT

Relative binding free energy, 0.22 kcal/mol:
GGTCTCACGTGTATGA, GGTTGCACGTGATGCT, GAAAACACGTGTAGGT, AGTTGCACGTGAGAAA, ATAGTCACGTGAGGCA, GTAATCACGTGGAAGT

Relative binding free energy, 0.01 kcal/mol:
GGGGTCACGTGGGCGA, ATAGGCACGTGATTAT, TTGTGCACGTGATCTT, TCGGTCACGTGTCGTT, TTATCCACGTGGTGTA

Relative binding free energy, -0.01 kcal/mol:
CTGTACACGTGGTTGA, GCCTGCACGTGTGGTG, GGGAGCACGTGATGGT, CTAGGCACGTGTGTCG, TTGTACACGTGTTGCG

Relative binding free energy, 0.36 kcal/mol:
GTTCTCACGTGATTTT, GTTTACACGTGTGGCC

Relative binding free energy, -0.04 kcal/mol:
TAGAACACGTGGTGCG, AGGGACACGTGTATAG, TGTCGCACGTGTGGTG, TTAGACACGTGGGTTG, TAGAGCACGTGGACGG, TGCGGCACGTGTGATA

Relative binding free energy, 0.38 kcal/mol:
TGATTCACGTGAAAGG, TTGATCACGTGAGGAT, GGTTTCACGTGACGTT, AGTATCACGTGAGCTG

Relative binding free energy, -0.09 kcal/mol:
TTTAACACGTGTCGTG, TAGGGCACGTGATCGG, CGGAGCACGTGGTCGT, TGATGCACGTGGTTCA, GGTACCACGTGGTGGA, TTGTGCACGTGGGGTC

Relative binding free energy, -0.16 kcal/mol:
ATGGGCACGTGGGATG, ATATACACGTGTTGTA, GCCGGCACGTGGTAGG

Relative binding free energy, -0.4 kcal/mol:
GGAAGCACGTGCGTGG

Relative binding free energy, -0.28 kcal/mol:
GGAGGCACGTGGGGCA

Relative binding free energy, 0.12 kcal/mol:
GGGGTCACGTGTAGCA, GAATGCACGTGATGTG, TTAAGCACGTGAAGGT, TTGATCACGTGGCTTA

Relative binding free energy, -0.14 kcal/mol:
TAACGCACGTGGTGAT

Relative binding free energy, 0.15 kcal/mol:
ATCATCACGTGTATTG, TGATGCACGTGTAATA

Relative binding free energy, 0.18 kcal/mol:
AGAGTCACGTGATGGG, TACTTCACGTGGTATT, GGGGTCACGTGTGACT

Relative binding free energy, -0.06 kcal/mol:
AGAGGCACGTGCGCTT, GGATACACGTGGGCTT

Relative binding free energy, -0.23 kcal/mol:
TTGACCACGTGGGGTA

Relative binding free energy, 0.25 kcal/mol:
GGTGTCACGTGTGCGC, GTTTACACGTGGTAGT, GAATTCACGTGTTGTG, GCTTCCACGTGTGGTG, GTGTTCACGTGCGTAA

Relative binding free energy, 0.37 kcal/mol:
CTGGTCACGTGAGGAT, GGACTCACGTGAGGGT

Relative binding free energy, 0.45 kcal/mol:
TTGTTCACGTGAATTT

Relative binding free energy, 0.08 kcal/mol:
ATGTTCACGTGTATGC, TATGTCACGTGACGTA, CGTATCACGTGGTGAA, TTGTACACGTGTATAA

Relative binding free energy, 0.31 kcal/mol:
GGGCTCACGTGTGTGT, GTTGTCACGTGAGTAA

Relative binding free energy, 0.28 kcal/mol:
CTGTTCACGTGGAGCT, TTATTCACGTGTGTTT, CGAGTCACGTGAGGTT, AGTTTCACGTGATTAT, AATATCACGTGTCGGT

Relative binding free energy, 0.11 kcal/mol:
GTGGACACGTGCCTGG, AAAGTCACGTGGAGTA, ATGGACACGTGCGTGC, GGGCACACGTGGTATT, AGTTGCACGTGAGACG, GTTGTCACGTGGAGGA, TGTTACACGTGTATGA

Relative binding free energy, -0.05 kcal/mol:
AAGGTCACGTGGAGCG, TAGAGCACGTGTGGTG, GCGTGCACGTGTAGTA, TTACGCACGTGGAGTA, GATAACACGTGATGTG, TTAACCACGTGTTGGG

Relative binding free energy, -0.11 kcal/mol:
CTTGACACGTGGGGTC, GAGAGCACGTGGTTTA, GTCGGCACGTGGCTGT

Relative binding free energy, 0.06 kcal/mol:
GGTCGCACGTGTAAAG, GGTATCACGTGGTTGA, GTGGCCACGTGTGTGG

Relative binding free energy, 0.1 kcal/mol:
TAGGACACGTGATTTT, CTCGTCACGTGTGGTA, ATCTACACGTGGGAGG, TATTGCACGTGTCGTT, GAGGACACGTGGCGTT, AGAGTCACGTGGTGTG, GGCTGCACGTGGCGGA

Relative binding free energy, 0.34 kcal/mol:
ATGTTCACGTGTCGTC, GTCGTCACGTGAGGGC, ATTTTCACGTGTGGAC

Relative binding free energy, 0.07 kcal/mol:
TTGTCCACGTGTCGGT, AGTGGCACGTGTAAGC, TAAGGCACGTGTCGGC, TGATGCACGTGATGTG, TGTGACACGTGTGTCT

Relative binding free energy, 0.14 kcal/mol:
GTGGACACGTGATGGT, AATGTCACGTGCTGGG, ATGATCACGTGCTATT, TCTTGCACGTGAGGCT, CTTATCACGTGTAGTT, TGATTCACGTGGGGGG, GGATACACGTGTCAGT, ATTTGCACGTGATTTT

Relative binding free energy, 0.4 kcal/mol:
AAGTTCACGTGAGATG, CAGTCCACGTGAAGGT

Relative binding free energy, -0.26 kcal/mol:
AGTGGCACGTGTGTAA

Relative binding free energy, 0.39 kcal/mol:
GTTTCCACGTGAGGTG

Relative binding free energy, -0.18 kcal/mol:
CTGGGCACGTGATTAG, TATAGCACGTGGGGTG

Relative binding free energy, 0.32 kcal/mol:
GGTGTCACGTGAGTGC, TGTTTCACGTGCGGCC

Relative binding free energy, -0.24 kcal/mol:
TGAAACACGTGGGTGG

Relative binding free energy, 0.35 kcal/mol:
GTATTCACGTGTTACG

Relative binding free energy, 0.16 kcal/mol:
TTGTTCACGTGGTCCT, TGCTTCACGTGTTGAT, ATGTACACGTGATTGA

Relative binding free energy, -0.1 kcal/mol:
TCTGGCACGTGGCGGG, TTAGCCACGTGGTTAG, TCTGGCACGTGGAGGA

Relative binding free energy, 0.33 kcal/mol:
GAAGGCACGTGAAGAG, GGGCTCACGTGTAGCT, ATAATCACGTGAGGCG

Relative binding free energy, 0.05 kcal/mol:
CGCATCACGTGGTTGT

Relative binding free energy, -0.08 kcal/mol:
GCTGACACGTGGTTTG, AATGCCACGTGTGGTG, CGGTGCACGTGGCTGT, CGTAGCACGTGATGGG

Relative binding free energy, -0.25 kcal/mol:
TGGCGCACGTGCGGGA, TGTAGCACGTGGTCAA, AAGAGCACGTGGGTTG

Relative binding free energy, -0.07 kcal/mol:
GGGTGCACGTGGTCGA, ATTATCACGTGCATGT, TTACACACGTGTTGGG, GGGCCCACGTGTGGGG

Relative binding free energy, -0.02 kcal/mol:
ATTTGCACGTGCTGGC, TTATCCACGTGTGGAT, TGATGCACGTGGACAG, TTGAGCACGTGTTTGT, GAATGCACGTGGGTAA, CATGACACGTGTGTTA, TTATCCACGTGTTTAA, TACGTCACGTGCGGGG

Relative binding free energy, 0.02 kcal/mol:
TGTGACACGTGACTGT, TGATACACGTGTCATG, GTATACACGTGCTTGG, CTATTCACGTGGGTGG, TTGGACACGTGGTAGA, AGTATCACGTGTCAGG, TGGGACACGTGGTATG
